In article PMC4336329 (PLoS ONE, 2015):
Out of some 310,000 compounds screened, about 2,200 (0.71%) showed an effect of 50% or more. Effects have a minus sign here. The list shows a part of the results.

target: human ether-à-go-go-related gene (hERG) potassium channel (human, UniProt Q12809); assay: primary screen, population patch clamp on CHO cells stably expressing hERG
Sequence (Q12809 whole entry, looked up): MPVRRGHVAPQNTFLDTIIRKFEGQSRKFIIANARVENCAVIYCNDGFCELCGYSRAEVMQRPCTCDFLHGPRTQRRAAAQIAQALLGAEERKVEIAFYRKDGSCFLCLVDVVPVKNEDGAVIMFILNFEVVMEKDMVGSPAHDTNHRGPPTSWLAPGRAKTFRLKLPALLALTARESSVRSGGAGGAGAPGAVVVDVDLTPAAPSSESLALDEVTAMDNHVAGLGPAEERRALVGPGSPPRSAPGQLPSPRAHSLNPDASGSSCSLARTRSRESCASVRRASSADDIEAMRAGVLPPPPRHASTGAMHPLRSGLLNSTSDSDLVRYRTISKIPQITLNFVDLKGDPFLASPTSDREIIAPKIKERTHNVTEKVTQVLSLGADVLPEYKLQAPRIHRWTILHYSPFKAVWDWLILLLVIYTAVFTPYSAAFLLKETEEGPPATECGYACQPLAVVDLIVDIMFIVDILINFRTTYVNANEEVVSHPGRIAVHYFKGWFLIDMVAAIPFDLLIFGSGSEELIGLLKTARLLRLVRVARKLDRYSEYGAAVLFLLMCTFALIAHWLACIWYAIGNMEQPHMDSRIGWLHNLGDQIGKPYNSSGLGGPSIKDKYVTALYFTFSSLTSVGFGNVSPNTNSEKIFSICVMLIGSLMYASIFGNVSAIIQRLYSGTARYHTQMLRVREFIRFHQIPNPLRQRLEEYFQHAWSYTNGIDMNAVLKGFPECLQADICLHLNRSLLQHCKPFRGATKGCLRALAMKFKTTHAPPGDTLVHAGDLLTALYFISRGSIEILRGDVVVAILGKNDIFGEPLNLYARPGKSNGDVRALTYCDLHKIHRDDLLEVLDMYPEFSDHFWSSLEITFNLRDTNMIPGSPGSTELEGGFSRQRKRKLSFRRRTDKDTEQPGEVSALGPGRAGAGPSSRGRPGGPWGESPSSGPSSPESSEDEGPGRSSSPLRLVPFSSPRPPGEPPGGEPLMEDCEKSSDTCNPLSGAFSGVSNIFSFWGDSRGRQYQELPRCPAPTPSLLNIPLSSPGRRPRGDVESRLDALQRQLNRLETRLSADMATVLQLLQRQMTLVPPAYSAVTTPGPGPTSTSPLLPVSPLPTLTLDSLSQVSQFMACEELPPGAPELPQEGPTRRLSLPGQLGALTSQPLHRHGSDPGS

Row | Compound | hERG current change (%, negative = inhibition) at 1uM [%]
1 | O=C1c2ccccc2NC(c2ccccn2)N1NS(=O)(=O)c1ccccc1 (centres unmarked) | 11.3
2 | CC(=O)O/N=C(\N)c1cnn2c(C(F)(F)F)cc(C(F)(F)F)nc12 | 13.1
3 | COc1ccccc1-n1c(SCC(=O)Nc2ccc(Br)cc2)nc(O)cc1=O | 14
4 | CCOC(=O)N1CCN(C(=O)C(CC(C)C)NS(=O)(=O)c2ccc(C)cc2)CC1 (centres unmarked) | 8.49
5 | CCCOc1ccc(Cc2nn3c(=O)/c(=C/c4ccco4)sc3nc2=O)cc1 | 20.3
6 | Cc1cccnc1NC(=S)NCCc1ccccc1 | -3.36
7 | C/C(=N\NC(N)=O)c1ccc(-n2ccnc2)cc1 | 16
8 | CCOC(=O)c1ccc(Nc2cc(C)nc(N3CCOCC3)n2)cc1 | 6.05
9 | COc1ccc2nc(NC(=O)CN3C(=O)NC4(CCCC4)C3=O)sc2c1 | 10
10 | CCOc1ccccc1NC(=O)c1cc(-c2ccccn2)nc2ccccc12 | 11
11 | COc1ccc(NC(=O)CCCC(=O)OCC(F)(F)C(F)F)cc1 | -14.7
12 | O=C(CN1CCN(S(=O)(=O)c2ccc(F)cc2)CC1)c1ccc(O)c(O)c1 | -6.92
13 | COc1cccc(NC(=S)N(Cc2ccc(C)cc2)Cc2ccccn2)c1 | 0.185
14 | C=C(C)COc1ccc(-c2[nH]ncc2-c2ccc(Br)cc2)c(O)c1 | 9.7
15 | Cc1cc(C)n(Cc2ccc(C(=O)Nc3cccc(Br)c3)o2)n1 | 6.9
16 | Cn1c(=O)[nH]c(=O)c2c1nc(NCc1ccccc1)n2Cc1ccc(F)cc1 | 9.27
17 | CC(=O)c1cccc(OCC(O)CN2CCN(S(=O)(=O)c3c(F)cccc3F)CC2)c1.O=C(O)C(=O)O (centres unmarked) | 1.4
18 | COc1ccc([N+](=O)[O-])cc1NC(=O)COC(=O)Cc1cc(OC)c(OC)c(OC)c1 | 7.61
19 | O=C(O)/C=C/C(=O)N1CCN(S(=O)(=O)c2cc(C(F)(F)F)ccc2Cl)CC1 | 5.37
20 | CCN(C(=O)COC(=O)c1ccc2[nH]c3c(c2c1)CCCC3)C1CCS(=O)(=O)C1 (centres unmarked) | 2.34
21 | O=C(c1cc(C2CC2)on1)N1CCN(C(c2ccccc2)c2ccccc2)CC1 | 16.2
22 | CCOC(=O)c1cn(CC(=O)Nc2ccc(CC)cc2)nn1 | 10.9

Row | Compound | hERG current change (%, negative = inhibition) at 1uM [%]
23 | O=C(CCC1CCCC1)Nc1ccon1 | 14.3
24 | CCOc1cc(C=O)ccc1OCCn1c([N+](=O)[O-])cnc1C | 17.4
25 | COc1ccc(/C=C2\SC(=S)N(CC3CCCO3)C2=O)cc1 (centres unmarked) | 14.4
26 | Cc1ccc(-n2nc(CN3CCOCC3)c(-c3ccccc3)c2N)c(C)c1 | -3.29
27 | Cn1c(SCC(=O)C(C)(C)C)nnc1-c1ccncc1 | 1.9
28 | COc1ccc(OC)c(C2=NNC(=NCc3ccc4c(c3)OCO4)SC2)c1 | 14.4
29 | CCOC(=O)c1ccccc1NC(=O)COC(=O)C1=COCCO1 | 7.39
30 | CCOc1ccc(NCc2nnc(SCC(=O)Nc3cc(C)on3)n2-c2ccccc2OC)cc1 | 7.98
31 | CN1CCN(C(=O)/C(=C\c2cccc([N+](=O)[O-])c2)NC(=O)c2cccs2)CC1 | -6.36
32 | CCOc1ccccc1N1CCN(C(=O)/C=C/c2cccc([N+](=O)[O-])c2)CC1 | -3.98
33 | O=C1C(Oc2ccccc2)C(c2ccc3c(c2)OCO3)N1CCc1ccc(F)cc1 (centres unmarked) | 16
34 | CCCCCCc1ccc(OCC(=O)OC)cc1OCC(=O)OC | 14
35 | CCn1c(SCC(=O)O)nc2sc3c(c2c1=O)CCC3 | 0.813
36 | Fc1ccc(/C=N/NC2=Nc3cccc4cccc2c34)cc1 | 31
37 | Cc1csc(SCC(=O)Nc2ccccc2)n1 | 9.64
38 | COc1ccc(N2C(=O)CC(NCc3ccncc3)C2=O)cc1 (centres unmarked) | 16.7
39 | COc1ccc(N(CC(=O)Nc2cc(C)ccc2C)S(=O)(=O)c2c(C)[nH]c(=O)[nH]c2=O)cc1 | 7.66
40 | Cc1ccc(C(=O)NC2CCCN(c3ccc(C(F)(F)F)cn3)C2)cn1 (centres unmarked) | 2.48
41 | COc1ccc(N2CCN(C(=O)NCc3ccc(OC)c(OC)c3)CC2)cc1 | 7.55
42 | O=C(NCCCN1CCOCC1)c1ccc(CSCc2cccc(Cl)c2)o1 | -44.4
43 | Cc1onc(-c2ccccc2)c1C(=O)OCC(=O)NC(C)c1ccc(Cl)cc1 (centres unmarked) | 7.15
44 | Cn1c(N)c(C(=O)CSc2nc(N)cc(N)n2)c(=O)n(C)c1=O | 14

Row | Compound | hERG current change (%, negative = inhibition) at 1uM [%]
45 | c1ccc(Nc2ccc3c4c(cccc24)CC3)cc1 | 15.8
46 | COc1cccc(NC(=O)c2cc3c(=O)n4ccccc4nc3n(CC(C)C)c2=N)c1 | -87.5
47 | CCOC(=O)[C@H]1[C@H]2COc3cc(OC)ccc3[C@@H]2N2C(=O)CN(Cc3ccc(OC)cc3)C(=O)[C@@]12C | 17.5
48 | COc1ccccc1CNC(=O)C1CC2Cn3c(nc4cc5ccccc5cc43)C2N1C (centres unmarked) | 4.32
49 | Cc1cnc(C(=O)OCC(=O)Nc2cc(-c3ccccc3)nn2-c2ccccc2)cn1 | -10.1
50 | O=C(Nc1ccccc1F)C1CCCN1S(=O)(=O)c1cccc2nsnc12 (centres unmarked) | 10.7
51 | COc1ccc(NC(=O)CSc2nc3c([nH]c4ccccc43)c(=O)n2C)c(OC)c1 | 17.1
52 | CNC(=O)COc1coc(CN2CCN(C(=O)c3ccco3)CC2)cc1=O | 5.14
53 | Cc1ccc(CCNC(=O)c2ccc3nc4ccc(Cl)cc4c(=O)n3c2)cc1 | 13.1
54 | O=C(/C=C\Nc1ccc(Br)cc1)c1cccnc1 | 2.34
55 | Cc1ccc(C(C)(C)C)cc1S(=O)(=O)Nc1cccc(S(=O)(=O)NC2=NCCC2)c1 | 22
56 | COc1cccc(C(=O)Nc2cccc(-c3ccc4nncn4n3)c2)c1OC | 12
57 | CCOc1ccc(S(=O)(=O)NCCC(=O)NCC(c2ccc(OC)cc2)N2CCCCC2)cc1 (centres unmarked) | -21.9
58 | CNc1nnc(SCC(=O)N2c3ccccc3NC(=O)CC2C)s1 (centres unmarked) | 6.91
59 | CCOC(=O)N1CCC(NC(=O)c2cc(S(=O)(=O)N3CCc4ccccc43)cn2C)CC1 | -7.91
60 | O=C(NCC(c1ccccc1Cl)N1CCCC1)C1CCN(C(=O)Nc2ccccc2)CC1 (centres unmarked) | 15.2
61 | CC(C)c1ccc(OCCCN2CCCC2)cc1 | -23.4
62 | Cc1cccc(C)c1NS(=O)(=O)c1c(C(=O)N2CCCCC2)c(C)n(C)c1C | 10.2
63 | CCOC(=O)CN1C(=O)S/C(=C/c2ccc(N3CCCCC3)o2)C1=O | 9.14
64 | CC(C)c1nc(N2CCOCC2)c(C#N)c2c1CCC2 | 20.1
65 | CCCCN(C(=O)NC(=O)Nc1c(C)cc(C)cc1C)S(C)(=O)=O | 10.5
66 | CCCCC(=O)Nc1ccc(C(=O)Nc2ccc3c(c2)OCO3)cc1 | 3.18

Row | Compound | hERG current change (%, negative = inhibition) at 1uM [%]
67 | CN(C)CCNC(=O)c1ccccc1-c1ccccc1 | 6.1
68 | CC1(OC(=O)c2cnc3ccccc3n2)C(=O)C=C2C=C(c3ccc(C#N)cc3)OC=C2C1=O (centres unmarked) | 9.36
69 | O=C(N/N=C/c1ccc(O)cc1)c1cccc(N/N=C/c2ccc(O)cc2)c1 | 7.62
70 | Cc1cccc(CN(CC(=O)N/N=C/c2cccs2)S(=O)(=O)c2ccc(Cl)cc2)c1 | 9.51
71 | COc1ccccc1OCc1nnc(SCC(N)=O)n1-c1ccccc1 | 10.9
72 | Cc1ccc(C(=O)C(C)OC(=O)c2ccccc2[N+](=O)[O-])cc1 (centres unmarked) | 8
73 | O=C(Nc1ncccn1)c1ccc([N+](=O)[O-])cc1 | 12.4
74 | Cc1ccc(NC(=S)N(C)C(c2ccccc2)c2ccccc2)cc1C | 16.6
75 | O=C1CC(C(F)(F)C(F)(F)C(F)(F)F)=Nc2ccccc2N1 | -8.29
76 | O=C(O)c1ccc(NNC(=S)Nc2cc(C(F)(F)F)ccc2Cl)cc1 | 13.4
77 | CCOc1nc2cnccc2n(CC(=O)Nc2c(C)cccc2CC)c1=O | 13.8
78 | CC12COC3(C(=O)Nc4ccc(Cl)cn4)CC1CCC32C (centres unmarked) | 4.26
79 | CN(CC(O)COCc1ccccc1F)C1CCCCC1 (centres unmarked) | 2.48
80 | CCc1c(C)c2cc(Cl)c(O)c(CN(C)C)c2oc1=O | 18.4
81 | COc1ccc([N+](=O)[O-])cc1N(CC(O)CN1CCCCC1)S(=O)(=O)c1ccccc1 (centres unmarked) | 2.16
82 | O=C1c2cccnc2C(O)N1Cc1ccccc1 (centres unmarked) | 12
83 | O=C(CCNS(=O)(=O)c1ccc(Cl)cc1)N1CCOCC1 | 18.7
84 | COc1ccc(/C=N/Nc2ccc([N+](=O)[O-])cc2)cc1Cn1cc([N+](=O)[O-])cn1 | 18.7
85 | Cc1ccc(OCCN2C(=O)C(=O)c3cc(C)ccc32)cc1 | -2.04
86 | CC(C)CC(COCc1cccc(C(F)(F)F)c1)N1CCN(C(=O)c2cccc(C(F)(F)F)c2)CCC1=O (centres unmarked) | 5.59
